The supplement of paper PMC10126150
Sequences with one replicate were seen in a single cluster, so their values are uncertain.

Tested on: ATP
Test: switch fluorescence ratio, 500 uM ATP over buffer (Cy3 cluster intensity, sum of 5 cycles each) (fold (ratio)); higher = stronger signal-on switching upon ATP binding; sequences stand for … in TCGTCGGCAGCGTCAGATGTGTATAAGAGACAGTTTTTTTTTTTTTTTTTTTTTTTTT…TC
Settings: aptamer strand: ATP DNA aptamer (quencher-CACCTGGGGGAGTATTGCGGAGGAAGG + anchor), 100 nM annealed; ATP concentration: 500 uM; one replicate
How it was run: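 The quencher-labelled ATP aptamer, at 100 nM, was annealed to Cy3-labelled switching-strand clusters on a modified Illumina MiSeq flow-cell. The clusters were imaged in selection buffer, then after 15 min with 500 uM ATP at 22 °C, and this buffer/ATP cycle ran five times with NaOH stripping and re-annealing between runs. Per-cluster fluorescence ratios, summed target-cycle over summed buffer-cycle Cy3 intensity, were averaged per switch-domain sequence. Clusters outside 100-1000 RFU were excluded.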
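Also: ATP exposure 15 min at 22 °C before imaging.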

In the case of AGAAAGGGCT, the switch fluorescence ratio is reported as 1.
In the case of TGACGATCTT, the switch fluorescence ratio is reported as 0.982.
In the case of CCCTTAGGAG, the switch fluorescence ratio is reported as 1.03.
With GGTTATCATG the switch fluorescence ratio was 1.01.
For TCCGCGTAGA, the switch fluorescence ratio was 1.05.
GACGAAAACA showed a switch fluorescence ratio of 0.986.
Sequence CCGCGCGTCG has a switch fluorescence ratio of 1.07.
TACATAGTCC was tested, and the switch fluorescence ratio was 0.99.
ATACGGTATA showed a switch fluorescence ratio of 1.05.
With CAGGTGAACG the switch fluorescence ratio was 1.16.
In the case of CCTTGGAACT, the switch fluorescence ratio is reported as 1.05.
For ACGCTCTTCT, the switch fluorescence ratio was 1.02.
CGATTCCGGA showed a switch fluorescence ratio of 0.954.
For AATGTAGCGC, the switch fluorescence ratio was 0.974.
For ATTAACCGAA, the switch fluorescence ratio was 1.07.
AAGGTGATA was tested, and the switch fluorescence ratio was 1.06.
GTGCTATCTT gave a switch fluorescence ratio of 0.955.
AATTGGTCGG gave a switch fluorescence ratio of 1.03.
ATTGTAGTCG showed a switch fluorescence ratio of 0.929.
For GCACTAGACG, the switch fluorescence ratio was 1.09.
AAACGAAAAC was tested, and the switch fluorescence ratio was 0.947.
TTCCTATCGG was tested, and the switch fluorescence ratio was 0.987.
Work on TTTCGGCTAG yielded a switch fluorescence ratio of 1.11.
For ATCAATCGTC, the switch fluorescence ratio was 0.97.
TCGGTATCGT gave a switch fluorescence ratio of 0.943.
Sequence AGTCGGTAAT has a switch fluorescence ratio of 0.948.
With CAAACGTCCT the switch fluorescence ratio was 1.04.
AAGTCTTGCT showed a switch fluorescence ratio of 0.971.
GGGACAACAT showed a switch fluorescence ratio of 0.974.
GAATGCGACC gave a switch fluorescence ratio of 1.51.
GTTTTGTGTG gave a switch fluorescence ratio of 0.96.
For TGTTCATGGA, the switch fluorescence ratio was 0.981.
Sequence GCGGCAAAG has a switch fluorescence ratio of 0.981.
For TTTTTGCAA, the switch fluorescence ratio was 2.11.
In the case of GTTGAAAGG, the switch fluorescence ratio is reported as 0.991.
Sequence GATACATATG has a switch fluorescence ratio of 1.02.
CCAGTGGACA showed a switch fluorescence ratio of 0.996.
AGCTAGGTTA gave a switch fluorescence ratio of 0.98.
In the case of TCCGTCTCCG, the switch fluorescence ratio is reported as 1.31.
CTTCTATATT was tested, and the switch fluorescence ratio was 0.981.
Sequence TAGATGGCCA has a switch fluorescence ratio of 1.04.
With TTGCTCCCAT the switch fluorescence ratio was 1.16.
For TATGAGACGG, the switch fluorescence ratio was 0.914.
CGGGGCTCAG showed a switch fluorescence ratio of 0.983.
In the case of GACATACCCT, the switch fluorescence ratio is reported as 1.4.
CCTTTAACGC was tested, and the switch fluorescence ratio was 1.72.
Work on CAATATTGTG yielded a switch fluorescence ratio of 0.993.
Sequence GACACCTGCG has a switch fluorescence ratio of 1.02.
With GGGGTCATGG the switch fluorescence ratio was 0.975.
In the case of GCTGTTCAGC, the switch fluorescence ratio is reported as 1.1.
For TGTTCTTTTC, the switch fluorescence ratio was 0.983.
With AACCAAACCG the switch fluorescence ratio was 1.16.
TGTGCCCCAT showed a switch fluorescence ratio of 1.01.
With ACAATGCCAA the switch fluorescence ratio was 1.01.
For CGCGATCTTA, the switch fluorescence ratio was 1.09.
TCCTTGGTTT gave a switch fluorescence ratio of 0.984.
Sequence GAAAGATCGT has a switch fluorescence ratio of 1.
With AGCGGAGCCG the switch fluorescence ratio was 0.884.
In the case of ATACATTTCT, the switch fluorescence ratio is reported as 1.04.
For CCATTCCAGG, the switch fluorescence ratio was 2.09.
CCACACCCCC gave a switch fluorescence ratio of 2.56.
Work on CATCGAGGCG yielded a switch fluorescence ratio of 1.01.
AAGTCCCGGG gave a switch fluorescence ratio of 0.943.
In the case of AGGCCAATTT, the switch fluorescence ratio is reported as 0.934.
Work on GAAAAATCTA yielded a switch fluorescence ratio of 0.958.
ATTCTGTTCG gave a switch fluorescence ratio of 1.
GCGTTGGACT was tested, and the switch fluorescence ratio was 0.973.
Work on AGCAACCCGG yielded a switch fluorescence ratio of 1.39.
Sequence GATAGTTAAT has a switch fluorescence ratio of 1.
GATGGAAAGC gave a switch fluorescence ratio of 1.1.
Work on AAAACGATTG yielded a switch fluorescence ratio of 1.06.
ATAGGGTCAA gave a switch fluorescence ratio of 1.03.
GATGACGAGA was tested, and the switch fluorescence ratio was 1.04.
With ATATGATTAA the switch fluorescence ratio was 0.966.
AAAACCATTA was tested, and the switch fluorescence ratio was 1.03.
In the case of TACTTCGGCA, the switch fluorescence ratio is reported as 1.08.
With CAGTGTACTG the switch fluorescence ratio was 1.01.
TGAACTAGG was tested, and the switch fluorescence ratio was 0.943.
Work on GTGGTTCTCC yielded a switch fluorescence ratio of 1.2.
GATTTTGAAG gave a switch fluorescence ratio of 1.02.
In the case of CGGTCGCTGT, the switch fluorescence ratio is reported as 1.08.
CAATCCAGAC was tested, and the switch fluorescence ratio was 1.03.
For AAAGGTTATA, the switch fluorescence ratio was 0.975.
TAGGGACGCT was tested, and the switch fluorescence ratio was 1.01.
TACCCTCT was tested, and the switch fluorescence ratio was 1.04.
For TGAAATAT, the switch fluorescence ratio was 0.981.
In the case of TCTCAGGT, the switch fluorescence ratio is reported as 0.981.
Work on TACGATCTA yielded a switch fluorescence ratio of 1.01.
ATGGTGAATA showed a switch fluorescence ratio of 1.01.
In the case of TGGCCCGCAT, the switch fluorescence ratio is reported as 2.
GCCATGCCTG was tested, and the switch fluorescence ratio was 1.07.
For GGTAACTAG, the switch fluorescence ratio was 0.966.
With AGGACATATC the switch fluorescence ratio was 1.05.
Sequence CGATACGCGA has a switch fluorescence ratio of 1.57.
In the case of ACTGGTTGCT, the switch fluorescence ratio is reported as 1.02.
TCATAGGGCT gave a switch fluorescence ratio of 0.987.
TAAGGTTAGC showed a switch fluorescence ratio of 1.
TTTTCTCTC showed a switch fluorescence ratio of 0.965.
In the case of CCGGTGATCG, the switch fluorescence ratio is reported as 1.09.
In the case of GATATAGTAA, the switch fluorescence ratio is reported as 0.991.
In the case of AACGTATTAG, the switch fluorescence ratio is reported as 1.36.
Work on ATTAGCTTGA yielded a switch fluorescence ratio of 0.981.
Work on GGGATCACTT yielded a switch fluorescence ratio of 1.05.
Sequence ATACTTGATG has a switch fluorescence ratio of 0.996.
In the case of GCGCTCGGTC, the switch fluorescence ratio is reported as 1.04.
In the case of GCTAGCACTC, the switch fluorescence ratio is reported as 1.
With GCGGGCAGG the switch fluorescence ratio was 1.01.
With CGCAACTTAG the switch fluorescence ratio was 2.19.
GCCACTTTAT gave a switch fluorescence ratio of 1.03.
For TGTCTCTACA, the switch fluorescence ratio was 1.01.
For CAACGTGAGC, the switch fluorescence ratio was 1.02.
For TACGCCCTC, the switch fluorescence ratio was 1.19.
CGACGGACCT was tested, and the switch fluorescence ratio was 1.44.
With AAAACAATT the switch fluorescence ratio was 1.02.
For ACCGACCCTT, the switch fluorescence ratio was 1.21.
TCGGTTGCAA was tested, and the switch fluorescence ratio was 1.45.
AAACGTATTT was tested, and the switch fluorescence ratio was 1.05.
In the case of TGTCATTTGC, the switch fluorescence ratio is reported as 0.964.
In the case of GCATGTTGCA, the switch fluorescence ratio is reported as 1.01.
CATGGATGGT showed a switch fluorescence ratio of 0.985.
ATAGTCTCCG gave a switch fluorescence ratio of 1.03.
For AGCCGCATGC, the switch fluorescence ratio was 4.11.
TCCAGTCTAC gave a switch fluorescence ratio of 1.14.
With AATGGGCGGG the switch fluorescence ratio was 0.952.
Work on GCGGTAATAA yielded a switch fluorescence ratio of 1.09.
CGTCTAGTCA was tested, and the switch fluorescence ratio was 0.984.
TTATGAGTT gave a switch fluorescence ratio of 0.98.
Sequence GCGAGCTTTG has a switch fluorescence ratio of 0.969.
GGCTAACCTC showed a switch fluorescence ratio of 1.02.
TCGAGAGCAA was tested, and the switch fluorescence ratio was 6.94.
In the case of ATGTCACATT, the switch fluorescence ratio is reported as 0.994.
TTTATGATTG was tested, and the switch fluorescence ratio was 1.03.
With GTTATCGATC the switch fluorescence ratio was 1.
GGCTGGGGAC was tested, and the switch fluorescence ratio was 0.994.
TCGATTTCTG gave a switch fluorescence ratio of 0.99.
Sequence AATATTATCA has a switch fluorescence ratio of 1.01.
With ACCTAAAGTG the switch fluorescence ratio was 1.05.
GAAGTGGCA gave a switch fluorescence ratio of 0.955.
In the case of AGGGGCGAAC, the switch fluorescence ratio is reported as 1.01.
CCGAGGTCAG was tested, and the switch fluorescence ratio was 2.03.
ACGGTGCTTA was tested, and the switch fluorescence ratio was 1.02.
Work on CACGAATCTA yielded a switch fluorescence ratio of 1.05.
Work on GTCAATGATT yielded a switch fluorescence ratio of 0.971.
In the case of CTAGTTCAAG, the switch fluorescence ratio is reported as 0.984.
GATCGTGTGC gave a switch fluorescence ratio of 0.94.
In the case of TGCGTTCGTA, the switch fluorescence ratio is reported as 1.
Sequence ATAGTCAGAA has a switch fluorescence ratio of 1.
TACAAGAGTA was tested, and the switch fluorescence ratio was 1.03.
Sequence AAGGCTTTAT has a switch fluorescence ratio of 0.968.
GAGGTATCGT was tested, and the switch fluorescence ratio was 1.01.
AAAAAGAATC gave a switch fluorescence ratio of 1.08.
TCGCCGATCC showed a switch fluorescence ratio of 1.01.
CTGGAACGCA was tested, and the switch fluorescence ratio was 1.44.
Sequence GCGCCCTTTT has a switch fluorescence ratio of 1.75.
With ATAGAGTAAT the switch fluorescence ratio was 0.973.
AAGGCCATAG showed a switch fluorescence ratio of 1.01.
TCAAAGTCGC showed a switch fluorescence ratio of 1.03.
